Test results taken from publication PMC4336329 (PLoS ONE, 2015).
About 2,200 (0.71%) of roughly 310,000 compounds showed an effect of 50% or more. Effects have a minus sign here. The list shows a part of the results.

Target: human ether-à-go-go-related gene (hERG) potassium channel (human, UniProt Q12809)
Assay: primary screen, population patch clamp on CHO cells stably expressing hERG

Chain of human ether-à-go-go-related gene (hERG) potassium channel (Q12809 whole entry, looked up): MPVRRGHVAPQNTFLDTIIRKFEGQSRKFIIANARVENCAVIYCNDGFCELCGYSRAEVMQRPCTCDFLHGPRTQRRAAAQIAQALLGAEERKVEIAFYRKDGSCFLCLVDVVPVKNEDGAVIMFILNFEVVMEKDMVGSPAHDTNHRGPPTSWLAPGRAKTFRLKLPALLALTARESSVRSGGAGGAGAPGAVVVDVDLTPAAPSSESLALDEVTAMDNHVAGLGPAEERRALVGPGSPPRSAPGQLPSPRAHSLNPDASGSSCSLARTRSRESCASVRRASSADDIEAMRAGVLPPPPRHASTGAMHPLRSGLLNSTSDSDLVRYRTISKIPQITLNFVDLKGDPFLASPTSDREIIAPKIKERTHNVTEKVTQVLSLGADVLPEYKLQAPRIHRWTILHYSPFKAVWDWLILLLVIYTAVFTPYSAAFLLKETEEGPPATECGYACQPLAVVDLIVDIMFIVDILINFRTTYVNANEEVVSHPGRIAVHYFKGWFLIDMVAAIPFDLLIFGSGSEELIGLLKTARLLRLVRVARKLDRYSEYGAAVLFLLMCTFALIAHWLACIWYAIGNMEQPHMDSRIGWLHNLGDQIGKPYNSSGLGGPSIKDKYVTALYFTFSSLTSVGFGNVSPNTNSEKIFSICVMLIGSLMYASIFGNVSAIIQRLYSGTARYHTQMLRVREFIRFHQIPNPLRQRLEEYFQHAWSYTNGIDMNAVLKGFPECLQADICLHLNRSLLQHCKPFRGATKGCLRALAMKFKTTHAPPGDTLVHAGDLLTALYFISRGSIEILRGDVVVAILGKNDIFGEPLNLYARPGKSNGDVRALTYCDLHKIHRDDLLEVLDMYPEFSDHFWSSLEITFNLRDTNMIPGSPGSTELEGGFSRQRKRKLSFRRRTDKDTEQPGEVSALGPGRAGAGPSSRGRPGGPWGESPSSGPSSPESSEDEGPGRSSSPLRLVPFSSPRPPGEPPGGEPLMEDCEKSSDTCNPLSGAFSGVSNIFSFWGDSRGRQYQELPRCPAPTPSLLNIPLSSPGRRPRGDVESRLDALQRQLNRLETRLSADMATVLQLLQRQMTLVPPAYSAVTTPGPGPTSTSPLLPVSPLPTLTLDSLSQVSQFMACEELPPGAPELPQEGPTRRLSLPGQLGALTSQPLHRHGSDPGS

Row | Structure (SMILES) | hERG current change (%, negative = inhibition) at 1uM
1 | CCNC(=S)N/N=C/c1ccc(OCc2ccc(C(=O)OC)cc2)cc1 | -4.16%
2 | O=C(CCCn1c(SCc2cccc(F)c2)nc2ccccc2c1=O)NCC1CCCO1 (stereo not shown) | 8.81%
3 | Cc1cc2cc(CNC(=O)c3cccc([N+](=O)[O-])c3)ccc2n1C | 13.8%
4 | CCOc1ccc(S(=O)(=O)NCCC(=O)N(C)CC(=O)Nc2ccc(OC)cc2)cc1 | 8.06%
5 | COc1cc2c(cc1C1C(C#N)=C(N)OC3=C1C(=O)CC(C)(C)C3)OCO2 (stereo not shown) | 3.63%
6 | O=C(CSc1nc(C2CCCCC2)nc2ccccc12)NCc1ccco1 | 13.1%
7 | O=C(COc1ccc(Br)cc1CO)Nc1ccccc1F | 10.6%
8 | Cc1cc(/C=C2/C(=O)NC(=O)N(Cc3ccco3)C2=O)c(C)n1-c1ccc(C(=O)O)cc1 | 13.7%
9 | CCn1cc(C(=O)O)c(=O)c2cc(F)c(N/N=C/c3ccccc3[N+](=O)[O-])cc21 | 3.61%
10 | O=C(O)CN=C1NC2(CCCCC2)Cc2ccccc21 | 5.63%
11 | COC(=O)Cc1ccc(OC(=O)CCS(=O)(=O)c2ccc(C)cc2)cc1 | 19%
12 | C[n+]1cccc(O)c1SCc1ccccc1.[Br-] | 11.4%
13 | CC1(C)c2[nH]c3ccccc3c2C[C@H]2C(=O)N(N)CC(=O)N21.Cl | 9.35%
14 | O=C(c1ccc2c(c1)OCO2)C1CCCN(C(=O)Nc2ccc(F)cc2F)C1 (stereo not shown) | -2.13%
15 | S=C(Nc1cccnc1)Nc1cccc2cnccc12 | 12.6%
16 | CCc1n[nH]c(=S)n1/N=C/c1c(O)ccc2ccccc12 | 11.6%
17 | Cc1cccc(Cn2ncc(Cl)c(Cl)c2=O)c1 | 13.4%
18 | CC(C)C(=O)NC(c1ccc(Cl)cc1Cl)c1ccc2cccnc2c1O (stereo not shown) | 16.3%
19 | NC1=NC(=O)C2(COC(c3ccccc3Cl)OC2)S1 (stereo not shown) | 13.2%
20 | COc1cc(CC(=O)NCC2COc3ccccc3O2)cc(OC)c1OC (stereo not shown) | 8.78%
21 | O=C(NCc1ccc2c(c1)OCO2)C1CCN(S(=O)(=O)c2cccs2)CC1 | 13.9%
22 | CCC(C)NC(C(=O)Nc1ccc(Cl)c([N+](=O)[O-])c1)c1ccccc1.O=C(O)C(=O)O (stereo not shown) | 10.3%

Row | Structure (SMILES) | hERG current change (%, negative = inhibition) at 1uM
23 | O=S(=O)(c1ccccc1Cl)N1CCC(Cc2ccccc2)CC1 | 13.5%
24 | COc1ccc(OC)c(Cc2nnc(CCC(=O)N3CCCCC3)o2)c1 | 6.27%
25 | Nc1ccc(SCc2cccnc2)cc1 | 14.6%
26 | C=CCNC(=O)c1ccc(CN2CCC(Cc3ccccc3)CC2)cc1 | -33.2%
27 | CC1(C)C(=O)OC(C(=O)c2ccccc2)C(C)(C)C1=O (stereo not shown) | -1.38%
28 | [O-][n+]1onc2c3ccnnc3ccc21 | 14.5%
29 | CC(=O)Nc1cc(Cl)c(N=Cc2ccc(O)cc2O)cc1Cl | 0.663%
30 | O=C(O)C1CCC(=O)N1Cc1ccc(F)cc1 (stereo not shown) | 5.96%
31 | O=c1[nH]c(Cc2ccccc2)nc2scc(-c3ccccc3)c12 | 15.5%
32 | CCOC(=O)c1cnn(CCOC(=O)c2ccc(OC)cc2)c1NC(=O)c1ccc(OC)cc1 | -2.54%
33 | O=Cc1c(NCc2ccc(Cl)cc2)c2ccccc2[nH]c1=O | -0.961%
34 | O=C1c2ccccc2S(=O)(=O)c2cc(N3CCc4ccccc4C3)ccc21 | 4.99%
35 | CCC(=O)Nc1ccc(-n2nnnc2SCC(=O)NNC(=O)c2ccco2)cc1 | 14.5%
36 | CCOC(=O)C1=C(C)N(c2ccccc2)C(=O)/C1=C\c1ccco1 | 6.63%
37 | COc1ccc(OCCn2cc(/C=N/NC(=O)c3ccncc3)c3ccccc32)cc1 | -3.83%
38 | CSc1ccccc1NC(=O)CN(C)CC(=O)Nc1ccc(Cl)cc1[N+](=O)[O-] | 4.26%
39 | Cc1ccc(S(=O)(=O)C(C#N)c2nc3ccccc3nc2N2CCN(C)CC2)cc1 (stereo not shown) | 4.94%
40 | O=C(Cc1cccc2ccccc12)NN1C(=O)CSC1=S | 6.4%
41 | Cn1cnc2cc(NCc3ccccc3Cl)ccc21 | 6.75%
42 | CCN(CC(=O)N1CCN(c2ccccc2)CC1)S(=O)(=O)c1ccc(C)cc1 | 11.5%
43 | CCCc1ccc(S(=O)(=O)Nc2ccc(C)c(NS(C)(=O)=O)c2)cc1 | -4.59%
